# Reference: PMC4336329 (PLoS ONE, 2015)
# Among all 310,000 compounds or so, about 2,200 (0.71%) showed an effect of 50% or more. Effects have a minus sign here. This is one part of the list.
# Target: human ether-à-go-go-related gene (hERG) potassium channel (human, UniProt Q12809)
# Assay: primary screen, population patch clamp on CHO cells stably expressing hERG
# Sequence of human ether-à-go-go-related gene (hERG) potassium channel (Q12809 whole entry, looked up): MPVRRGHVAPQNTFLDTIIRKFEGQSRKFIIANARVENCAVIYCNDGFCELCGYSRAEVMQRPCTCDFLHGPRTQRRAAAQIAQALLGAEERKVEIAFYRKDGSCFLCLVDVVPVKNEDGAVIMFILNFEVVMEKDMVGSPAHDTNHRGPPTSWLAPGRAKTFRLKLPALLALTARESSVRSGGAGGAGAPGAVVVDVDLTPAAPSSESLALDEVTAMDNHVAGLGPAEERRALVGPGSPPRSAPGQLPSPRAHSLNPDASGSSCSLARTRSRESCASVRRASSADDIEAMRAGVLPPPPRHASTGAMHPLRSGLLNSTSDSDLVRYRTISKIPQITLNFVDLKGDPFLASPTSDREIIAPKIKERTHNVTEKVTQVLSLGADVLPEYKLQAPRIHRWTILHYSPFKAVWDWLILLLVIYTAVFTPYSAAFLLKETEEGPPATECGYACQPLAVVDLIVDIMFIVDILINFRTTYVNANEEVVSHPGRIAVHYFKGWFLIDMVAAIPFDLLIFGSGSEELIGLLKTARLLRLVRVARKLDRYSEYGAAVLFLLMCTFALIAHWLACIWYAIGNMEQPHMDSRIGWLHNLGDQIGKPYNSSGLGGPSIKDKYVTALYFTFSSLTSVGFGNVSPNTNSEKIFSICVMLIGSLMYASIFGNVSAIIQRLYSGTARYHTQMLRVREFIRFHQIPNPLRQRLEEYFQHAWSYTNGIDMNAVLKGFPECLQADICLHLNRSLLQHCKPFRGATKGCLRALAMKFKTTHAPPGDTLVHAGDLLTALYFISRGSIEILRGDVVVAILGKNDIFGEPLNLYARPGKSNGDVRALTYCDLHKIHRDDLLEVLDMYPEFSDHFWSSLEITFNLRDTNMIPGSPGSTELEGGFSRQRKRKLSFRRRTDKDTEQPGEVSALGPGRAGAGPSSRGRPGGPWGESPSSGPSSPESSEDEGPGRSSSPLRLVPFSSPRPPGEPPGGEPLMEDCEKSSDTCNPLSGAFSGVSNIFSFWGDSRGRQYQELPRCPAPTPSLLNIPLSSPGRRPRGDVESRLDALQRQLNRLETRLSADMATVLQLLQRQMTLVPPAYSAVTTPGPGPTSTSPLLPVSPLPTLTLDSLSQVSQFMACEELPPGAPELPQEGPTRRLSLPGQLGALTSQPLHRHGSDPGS
row,SMILES,"hERG current change (%, negative = inhibition) at 1uM [%]"
1,CC(C)N(CCNC(=O)C1CCCN(c2ncnc3c2nc2n3CCCCC2)C1)Cc1ccccc1 (stereo not drawn),2.71
2,Cc1cn(S(=O)(=O)c2ccc(Cl)cc2)c(C)n1,-2.82
3,Cc1noc(C)c1CSc1nnc(-c2ccccc2)o1,14.1
4,O=S(=O)(c1ccc(OCC(O)CNC23CC4CC(CC(C4)C2)C3)c(Cl)c1)N1CCOCC1 (stereo not drawn),20
5,CCOC(=O)c1[nH]c(C)c(C(=O)OCc2c(C)noc2C)c1C,-0.753
6,CC1CC(C)CN(C(=O)c2cccc(S(=O)(=O)Nc3cc(C(F)(F)F)ccc3Cl)c2)C1 (stereo not drawn),-0.559
7,CC(=O)c1ccc(S(=O)(=O)Nc2ccc(N3CCOCC3)cc2)cc1,5.7
8,COc1ccc(S(=O)(=O)N2CCOC2CNC(=O)C(=O)NCCN2CCOCC2)cc1C (stereo not drawn),1.23
9,O=C(CNc1ccc2ccccc2c1)N/N=C/c1ccccn1,5.33
10,CCOC(=O)CNC(=O)c1cn(CC)c(=O)c2cc(OC)c(OC)cc12,11.6
11,Cc1cc(C)n2c3c(c(C#N)c2n1)CCCC3,12.4
12,Nc1c(C=C2C=CC(=O)C=C2)c(=O)nc2snc(SCc3ccccc3)n12,11.4
13,O=[N+]([O-])c1ccccc1S(=O)(=O)Nc1ccc(S(=O)(=O)N2CCOCC2)cc1,15.9
14,O=C(NNc1ccc(F)cc1)c1c(F)cccc1Cl,10.5
15,COc1ccccc1N1CCN(C(=O)C2CCCN(c3ncnc4c3nc3n4CCCCC3)C2)CC1 (stereo not drawn),3.38
16,O=C(/C=C/c1ccccc1)N(c1ccccn1)C1CCCCC1,3.14
17,CC(C)(C)c1ccc(/C=C2\Oc3c(ccc(O)c3CN3CCN(CCO)CC3)C2=O)cc1,12
18,Cc1ccc(N2CCN(/N=C/c3sccc3C)CC2)cc1,-1.94
19,CCc1ccc(NC(=O)C[n+]2cc(-c3ccc(C)cc3)n3c2CCC3)cc1.[Cl-],-3.65
20,Cc1cccc(NC(=O)COC(=O)c2ccc3c(=O)n4c(nc3c2)CCC4)c1,4.92
21,CC(C)(C)n1ncc2c(=O)n(CC(=O)NCc3ccccc3Cl)cnc21,16.5
22,Cc1nnc(SCC(=O)Nc2nc(C(C)(C)C)cs2)s1,-16.9
23,CCOc1ccc(S(=O)(=O)n2cc(F)c(=O)[nH]c2=O)cc1[N+](=O)[O-],16.9
24,CCCCCCCC(=O)NNC(=O)c1ccc(F)cc1,-9
